{
  "source": "paper PMC12136788",
  "binders": {"B1": {"name": "chr11:82972979:82972980:-_ENSG00000137500_ENST00000527495|hu_mus|FALSE|FALSE (ssRNA)", "RNA": "GGGAGUUCUACAGUCCGACGAUCGCAGCAGCGGCAGCAUCAUCGUCAGUUCUCCUUCCAGAACCUAUAAAACCCCAAUGCUAUCGCCAAGCAAGUGAACACUGAGGCUGCAAGAUAACGAAUUGUUUCAAGUUUGCUCGACUCCAACAGAGGAUUGAGCAUCA"}, "B2": {"name": "chr8:8869160:8869161:+_ENSG00000104626_ENST00000250263|hu_hu|FALSE|FALSE (ssRNA)", "RNA": "GGGAGUUCUACAGUCCGACGAUCUAUUUCAUGUACAAACUCAGGUGGGUUUCCUUCUUCACAAGUGGCUUCAAAGUCAAUAAUACAAAUGUAGUCAUAAUAACUGUCAGCAAAAUUGCUCUCUUUCAGCAUCAGCUUCUGCUUCAACAGAGGAUUGAGCAUCA"}, "B3": {"name": "chr1:174129369:174129370:-_ENSMUSG00000013698_ENSMUST00000013842|mus_mus|FALSE|FALSE (ssRNA)", "RNA": "GGGAGUUCUACAGUCCGACGAUCACGGGUUCUGUAGUCAACCACCAUAGUGAGGAGGUCAGGACGGCGAGAUAUCUCAAAGAUGUGCUCAAUGUAGGAGAGGUUGUCUUUGUCCAGCUUGUUGUGGCUCUCCAGGAAGCUAAACAACAGAGGAUUGAGCAUCA"}, "B4": {"name": "chr1:163112212:163112213:-_ENSG00000143248_ENST00000313961|hu_hu|hu_hu_hu_mus_False|58_78 (ssRNA)", "RNA": "GGGAGUUCUACAGUCCGACGAUCUUUUAUUAUCAGUAAGAGUGAGUUACAUACUAGAUAAAGUAUUGGAUACAAUAUUCUAAAGAUAAACACUAUUGGUCCAGAAUUUAAAACUUUAUGAGCGAAGUGCUGGCACAGGACUUACAACAGAGGAUUGAGCAUCA"}, "B5": {"name": "chrX:34632047:34632048:-_ENSMUSG00000036572_ENSMUST00000076265|mus_hu|FALSE|FALSE (ssRNA)", "RNA": "GGGAGUUCUACAGUCCGACGAUCUAACUAUUUAAAUUUUUGUAUCAACGAAAGUGUGUUCUAUCCUUCACUGUACCUGUACUACAAGGACAUGCUUGUUGCUUCUACACUACCCAAUGUCAACACUUAUCAUCAACAAUACAACAACAGAGGAUUGAGCAUCA"}, "B6": {"name": "chr2:187373433:187373434:+_ENSG00000065548_ENST00000337859|hu_hu|FALSE|FALSE (ssRNA)", "RNA": "GGGAGUUCUACAGUCCGACGAUCUUUUCAGCGAUGUGUUUGGUGUCAUUCUUCUAAAUCAAGUGUAUUUAAUUCUUCUUCUAGUUCAUCCAAAUCCUCUCCAGUGAAAAGAUUUUCAUCAACAGGAACAGCAUCAAUGGCUCCCAACAGAGGAUUGAGCAUCA"}, "B7": {"name": "128792796_128792916_2876_3pUTR_ENSMUSG00000063317_ENSMUST00000046929|mouse|control|control (ssRNA)", "RNA": "GGGAGUUCUACAGUCCGACGAUCUUAUUAUCAAAAGGAUCAGAGACGGGGGGCAAGUGAUCCCCUUGUGCUCGGUUUUUGCUUGGUGUGUCUACAACACUGGAGUUCAAUUUUCCAGGGUCUGAGUCAUCUUUGAACACACCUCAACAGAGGAUUGAGCAUCA"}, "B8": {"name": "98121652_98123399_354_3pUTR_ENSMUSG00000022987_ENSMUST00000023722|mouse|control|control (ssRNA)", "RNA": "GGGAGUUCUACAGUCCGACGAUCAGUCUGUCUGCGAGGGGUCCAGGCUCCGCCACUCCUCCUGGGAUCCGGCUGCAAGAAGUGCGGCUGCCAUUUCCCAGUCUCCAGUGUUCCCCUCCUGGGGAACGGCCGGAACCCAGGGAACAACAGAGGAUUGAGCAUCA"}, "B9": {"name": "chr2:198367945:198367946:+_ENSG00000115541_ENST00000409468|hu_mus|FALSE|FALSE (ssRNA)", "RNA": "GGGAGUUCUACAGUCCGACGAUCGACACCAUUUCAACAGUGAUUUCAGUCGACAUACUUUCCAAGAAUGUCACUAUCUCUAAAUAAGAAAUAAUCCUUGUCAUCUAGAACUACUUUGGUGCCUCCAUAUUCUGGGAGAAGAACCAACAGAGGAUUGAGCAUCA"}, "B10": {"name": "chr22:18299541:18299542:-_ENSG00000243156_ENST00000441493|hu_hu|FALSE|FALSE (ssRNA)", "RNA": "GGGAGUUCUACAGUCCGACGAUCAAGGACAUCGUCGCUGGAGAGGUCUGAGUCCUCGGAGAAGCUCAGCUGGCGCCGGAGCUGCAGCUCUGCCCUUACGACGGGAAGCACCCUGUGCUUUCCAGAGUCCACCGUGGCCCCGCUCAACAGAGGAUUGAGCAUCA"}, "B11": {"name": "chr7:140404665:140404666:+_ENSG00000090266_ENST00000247866|hu_hu|hu_hu_hu_mus_False|8_58 (ssRNA)", "RNA": "GGGAGUUCUACAGUCCGACGAUCUGCUCCUACUCGUCCAGAGAGUUUACAGUGUCAGUCCUCGUCAUCAGGAGGGAUACCUAAUUCUUCAUCUGUCCACUGUGAAGGAUCUGGAUAUGAAAAGUGACCCAGCACCUCAUCCGACAACAGAGGAUUGAGCAUCA"}, "B12": {"name": "chr15:76014475:76014476:-_ENSMUSG00000022565_ENSMUST00000071869|mus_hu|FALSE|FALSE (ssRNA)", "RNA": "GGGAGUUCUACAGUCCGACGAUCGAGCUCCGGGAGGGUGGCCGGCACGGCCUGGGCCUCCUUGAGCUGCUCCUCGUGGGCCCUGAGCACCUCCUCGGCCCCCUGCGUGCCGCGGAUCACCAGGCUGAUGGUCUUGAGCUUCUCCAACAGAGGAUUGAGCAUCA"}, "B13": {"name": "chr1:58468927:58468928:-_ENSMUSG00000026034_ENSMUST00000148330|mus_mus|mus_mus_mus_hu_False|78_88 (ssRNA)", "RNA": "GGGAGUUCUACAGUCCGACGAUCAAUUACUGAAAAAGAUGUUCAUUUAUUUGGUUUGGCCAUGUAUGAACCAAAUUACCCAAACAAAAUAAACAUGGCAAUAUAAAAAUGUUAAGAAUUUACAAAGCUGUACAAAAUAACUUACAACAGAGGAUUGAGCAUCA"}, "B14": {"name": "chr14:78183846:78183847:+_ENSG00000119705_ENST00000557342|hu_hu|hu_hu_hu_mus_False|1_78 (ssRNA)", "RNA": "GGGAGUUCUACAGUCCGACGAUCUCUCAGAAAUCUUUCUUCAUCAGAUGUUUGAGCUGUUUGCGGAGCCUUUGCUCUUUGAGCUUGAACGUGGAUCUAUGGGAGGGAAAGCACUGUCAGAAAAGGUAAUUUUUUUUUCCGAAGCAACAGAGGAUUGAGCAUCA"}},
  "note": "This is one part of the list.",
  "data": [
    {"target": "T1, UNK ZnF1-3 (human, UniProt Q9C0B0 31-174)", "T1 sequence": "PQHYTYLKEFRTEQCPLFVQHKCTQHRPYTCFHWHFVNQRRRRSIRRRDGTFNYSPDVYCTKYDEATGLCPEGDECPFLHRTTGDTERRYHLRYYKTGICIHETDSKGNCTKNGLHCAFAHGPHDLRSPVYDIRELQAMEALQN", "test": "nsRBNS (natural sequence RNA bind-n-seq); RBNS binding buffer (assumed for nsRBNS): 25 mM Tris pH 7.5, 150 mM KCl, 3 mM MgCl2, 0.01% Triton X-100, 500 ug/ml BSA, 20 U/ml SUPERase-In, 4 C; UNK is unkempt and MSI1 is Musashi-1; names of the RNAs are library labels; protein concentration not given here; high values mean tight binding", "units": {"binding signal": "enrichment R"}, "values": [
      {"binder": "B1", "binding signal": 1.04},
      {"binder": "B2", "binding signal": 1.09},
      {"binder": "B3", "binding signal": 1.09},
      {"binder": "B4", "binding signal": 1.08},
      {"binder": "B5", "binding signal": 1.16},
      {"binder": "B6", "binding signal": 1.37},
      {"binder": "B7", "binding signal": 0.823},
      {"binder": "B8", "binding signal": 0.32},
      {"binder": "B9", "binding signal": 0.978},
      {"binder": "B10", "binding signal": 0.707},
      {"binder": "B11", "binding signal": 1.05},
      {"binder": "B12", "binding signal": 1.06},
      {"binder": "B13", "binding signal": 1.15},
      {"binder": "B14", "binding signal": 1.3}
    ]}
  ]
}
